From the supplement of paper PMC4166925
± gives the standard deviation of the averaged measurements. Whole data set: some 33,000 sequences, median “E-score (dimensionless, -0.5 to 0.5)” near -0.046, cut for the highest 2% near 0.36. This is one part of the list.

Tested on: T1, SpTbr T-box DNA-binding domain (GST fusion)
T1 sequence: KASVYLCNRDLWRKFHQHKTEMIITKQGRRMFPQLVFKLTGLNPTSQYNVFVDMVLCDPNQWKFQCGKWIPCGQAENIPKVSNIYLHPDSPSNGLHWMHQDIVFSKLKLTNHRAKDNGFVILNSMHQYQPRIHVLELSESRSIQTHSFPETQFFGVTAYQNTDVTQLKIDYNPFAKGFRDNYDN
Experiment: PBM E-score of 8-mer (E-score (dimensionless, -0.5 to 0.5)); Tbr is Tbrain of the sea star Patiria miniata (Pm) or the sea urchin Strongylocentrotus purpuratus (Sp); higher = stronger binding preference; most listed sequences are background and not binding sites
Details: the construct has about 5 more residues each side
How it was run: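 Universal Agilent oligonucleotide arrays, made double-stranded by primer extension, were incubated with 200 nM GST-fused Tbr T-box DNA-binding domain in PBS (pH 7.5). The protein was expressed in BL21 E. coli at 20 °C and purified by glutathione affinity chromatography. After scanning and quantification, the Universal PBM Analysis Suite assigned an enrichment E-score to each ungapped 8-mer, averaged over duplicate arrays.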

Sequence | PBM E-score of 8-mer
AAGCTTAG | -0.108 ± 0.11
ACACTACC | 0.209 ± 0.061
TACCTCCA | -0.0368 ± 0.093
AGTGCTAA | 0.412 ± 0.015
GTCAGCCA | 0.127 ± 0.048
AGGGATTG | -0.138 ± 0.0095
GCGCGGTA | 0.014 ± 0.12
ATATAGGC | -0.0504 ± 0.058
ACCGAAAA | -0.0959 ± 0.065
CAACAAGC | 0.103 ± 0.051
AACCTTAA | -0.218 ± 0.046
GGGTGCTA | 0.397 ± 0.0085
GGGGCTAA | -0.0514 ± 0.017
TGATTTAA | -0.156 ± 0.075
AAAGTCTC | 0.0594 ± 0.02
GCAATTGC | 0.22 ± 0.011
ACAGCGAG | 0.197 ± 0.029
CCACGTGA | 0.113 ± 0.019
GTGGGCAA | -0.0347 ± 0.096
AAGTCGCC | -0.127 ± 0.096
CAGGCAAA | -0.369 ± 0.059
GCGCTAAC | 0.388 ± 0.007

Sequence | PBM E-score of 8-mer
CCTGGACC | -0.2 ± 0.043
ATCGGAAC | -0.127 ± 0.035
ACCCCACG | -0.0697 ± 0.0027
ACGTCTAC | -0.177 ± 0.071
CCAGAGCG | -0.227 ± 0.069
AAATCCCC | -0.248 ± 0.063
CTAACTAA | 0.173 ± 0.011
AGCCTGAA | -0.138 ± 0.022
ATGCTCGC | 0.167 ± 0.0036
AACTTGGC | 0.0887 ± 0.0052
ACTGACGG | 0.1294 ± 0.00097
ACTCCCTC | 0.0103 ± 0.022
ACCATTGG | -0.124 ± 0.049
GACGCATA | 0.00443 ± 0.039
AACGCCTA | 0.298 ± 0.038
ACACACTC | 0.307 ± 0.019
CATGAATA | -0.2237 ± 0.0016
ATCACACA | 0.425 ± 0.017
CATCGACA | 0.222 ± 0.013
AAGTGTGG | 0.417 ± 0.013
AGGCCTGC | -0.174 ± 0.026
AGTCCTCG | -0.0622 ± 0.058

Sequence | PBM E-score of 8-mer
GGAGCGGA | -0.219 ± 0.0072
CGGGAACG | 0.0813 ± 0.004
ACCCCGAG | -0.103 ± 0.051
CAACCCGG | -0.0361 ± 0.034
TGATCAAA | -0.209 ± 0.029
ATAGTAAA | -0.248 ± 0.05
GAAATAGC | 0.141 ± 0.044
AACCGCCA | 0.0837 ± 0.013
CCAGTCAC | 0.0388 ± 0.0065
CTGCGGCA | 0.00565 ± 0.019
CGTTACCC | 0.165 ± 0.034
GACGTACA | 0.0653 ± 0.026
GTTTCAGA | -0.0787 ± 0.024
ACCCAAGA | -0.123 ± 0.0028
AGCGAGCC | -0.0938 ± 0.044
AGAGAGTC | -0.214 ± 0.05
CCGTCGGC | 0.0545 ± 0.058
AAAATTGC | -0.00789 ± 0.088
CATCGAGA | 0.185 ± 0.04
CAATGGTG | 0.1615 ± 0.00032
ATGGTTCC | -0.179 ± 0.0087
GTGGGAGA | 0.132 ± 0.075

Sequence | PBM E-score of 8-mer
CGACCGAG | -0.0379 ± 0.051
CAACTTGC | 0.182 ± 0.016
CGCGCACA | 0.135 ± 0.088
AAAATGTC | 0.00526 ± 0.046
AGCTCTGG | -0.196 ± 0.077
ATGCTAAC | 0.0372 ± 0.018
ACTCCGAC | -0.0256 ± 0.077
CCACCTAA | 0.134 ± 0.083
AGACCGCT | -0.121 ± 0.073
CTCAGAAG | -0.183 ± 0.022
ACGGGTGG | 0.0181 ± 0.18
CATAACAA | 0.00154 ± 0.064
AACGGAGC | 0.0219 ± 0.041
GGCTGCCA | 0.0487 ± 0.026
CCCCGTAC | -0.0405 ± 0.0072
CACACGTC | 0.451 ± 0.0092
AAGTCACT | -0.116 ± 0.06
ACTCCCGG | -0.0315 ± 0.0073
CAGATGTC | -0.00265 ± 0.028
GATGGAGA | -0.152 ± 0.0066
CCTCCCTA | -0.15 ± 0.043
CTCAGCTC | -0.0312 ± 0.062

Sequence | PBM E-score of 8-mer
ATGACAGC | 0.0816 ± 0.054
GAGGAAGC | -0.126 ± 0.022
CTCTACCC | -0.172 ± 0.092
ACGGGGCC | -0.189 ± 0.021
CTTTAAGC | -0.136 ± 0.004
CTCGATCC | -0.175 ± 0.13
CGACCAAC | 0.0436 ± 0.066
AATACTAG | -0.127 ± 0.078
AAGATCTC | 0.0605 ± 0.0099
GGGAACAC | 0.188 ± 0.0032
ACCCATGC | 0.0143 ± 0.024
TCATCAGA | 0.105 ± 0.044
AGACACCG | 0.0814 ± 0.026
GGTGGTAC | 0.171 ± 0.008
TATTTCGA | 0.00196 ± 0.12
AACCAACG | 0.05 ± 0.0024
AGCAGCGC | -0.0329 ± 0.041
GGTGAGTA | 0.176 ± 0.021
AGTAGCAA | 0.0181 ± 0.052
CAAAACCC | 0.0107 ± 0.019
CGCGCCAC | 0.28 ± 0.022
